Laboratory results published in PMC4336329 (PLoS ONE, 2015).
The whole screen tested about 310,000 compounds, of which about 2,200 (0.71%) showed an effect of 50% or more. The effect is printed as a negative number. Some of the results follow.

target: human ether-à-go-go-related gene (hERG) potassium channel (human, UniProt Q12809); experiment: primary screen, population patch clamp on CHO cells stably expressing hERG
Sequence (Q12809 whole entry, looked up): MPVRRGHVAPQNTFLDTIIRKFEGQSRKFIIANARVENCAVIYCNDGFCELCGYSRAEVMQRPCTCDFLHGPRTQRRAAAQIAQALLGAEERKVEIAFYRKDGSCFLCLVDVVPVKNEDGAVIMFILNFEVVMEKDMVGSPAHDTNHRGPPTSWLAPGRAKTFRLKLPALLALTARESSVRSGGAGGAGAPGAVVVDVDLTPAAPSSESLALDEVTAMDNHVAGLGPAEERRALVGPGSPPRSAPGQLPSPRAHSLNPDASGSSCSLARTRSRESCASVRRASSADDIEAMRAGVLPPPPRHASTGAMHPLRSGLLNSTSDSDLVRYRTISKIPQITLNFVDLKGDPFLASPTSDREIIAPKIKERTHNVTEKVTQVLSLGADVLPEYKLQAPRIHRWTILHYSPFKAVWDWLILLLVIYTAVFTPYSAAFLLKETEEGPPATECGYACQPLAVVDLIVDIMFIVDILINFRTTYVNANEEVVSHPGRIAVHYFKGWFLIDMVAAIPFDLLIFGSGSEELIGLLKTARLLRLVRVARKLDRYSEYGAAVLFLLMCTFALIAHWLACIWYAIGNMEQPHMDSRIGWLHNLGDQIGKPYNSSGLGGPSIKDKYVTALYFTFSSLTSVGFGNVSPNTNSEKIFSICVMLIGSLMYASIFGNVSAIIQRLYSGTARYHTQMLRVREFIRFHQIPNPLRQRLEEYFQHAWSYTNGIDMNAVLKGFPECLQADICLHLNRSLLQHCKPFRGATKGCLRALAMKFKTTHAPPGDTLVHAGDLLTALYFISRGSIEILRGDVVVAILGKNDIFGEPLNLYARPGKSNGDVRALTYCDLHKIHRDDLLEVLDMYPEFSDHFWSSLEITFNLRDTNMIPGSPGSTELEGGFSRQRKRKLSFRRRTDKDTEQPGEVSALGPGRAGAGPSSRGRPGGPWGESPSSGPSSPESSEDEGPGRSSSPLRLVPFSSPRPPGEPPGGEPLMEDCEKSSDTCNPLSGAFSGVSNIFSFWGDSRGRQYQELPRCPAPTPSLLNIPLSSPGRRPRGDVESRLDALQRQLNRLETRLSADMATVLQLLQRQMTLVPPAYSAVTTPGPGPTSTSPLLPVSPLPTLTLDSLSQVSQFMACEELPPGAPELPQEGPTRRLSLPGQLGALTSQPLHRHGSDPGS

SMILES | hERG current change (%, negative = inhibition) at 1uM
COc1ccc(S(=O)(=O)Nc2cc3c4c(c2)CC(=O)N4CCC3)cc1 | -6.19%
COCc1cc(CNC(=O)C2CCC(=O)N(Cc3ccccc3F)C2)[nH]n1 (centres unmarked) | 14.6%
Cc1ccc(NS(=O)(=O)c2c(C(=O)N3CCCCCC3)c(C)n(C)c2C)c(Cl)c1 | 7.94%
COc1ccc(C2c3ccc4ccccc4c3Oc3ncn(CCCO)c(=N)c32)cc1 (centres unmarked) | -40.6%
Cc1cc(C)n(-c2ccc(Cl)c(C(=O)Nc3cc(C(F)(F)F)ccc3Cl)n2)n1 | 12.6%
Cc1ccc2nc(SCC(=O)N3CCC(Cc4ccccc4)CC3)nc(=O)n2c1 | -31.1%
CCOC(=O)CNC(=O)c1c2c(nc3ccccc13)CCCC2 | 14.8%
O=C(/C=C/c1ccc(Cl)cc1)NCCN1CCOCC1 | -0.648%
C[n+]1ccccc1/C=C/c1ccc2ncccc2c1.[I-] | 11.2%
Cn1c(Cn2c(=O)sc3ccccc32)nnc1SCC(=O)Nc1cccc(Cl)c1 | 6.8%
CCn1c(COc2ccc(=O)n(-c3ccccc3)n2)nnc1SC | 8.56%
CCN(CC(=O)NCc1cccs1)C(=O)c1cc(S(=O)(=O)N2CCOCC2)ccc1C | 3.23%
O=C(CCCn1c(=O)c2cccn2c2cccnc21)NCc1cccc(Br)c1 | -0.008%
O=C(COC(=O)C1C2CC3OC(=O)C1C3C2)Nc1ccc(F)cc1 (centres unmarked) | 11.2%
Nc1nn(-c2ccccc2)c(N)c1N=Nc1ccccc1F | -4.18%
Cn1cnnc1SCC(=O)NCc1cccc(C(F)(F)F)c1 | 24.1%
CC(CO)(CO)NC(=O)c1ccc(=O)[nH]n1 | 2.91%
S=C(NCCCN1CCOCC1)Nc1cccc(-c2nnc3n2CCCCC3)c1 | 2.32%
CC1=NN(C2=NS(=O)(=O)c3ccccc32)C(C)(O)C1 (centres unmarked) | -7.57%
Cc1ccc(NC(=O)C2(N(C(=O)Cn3nnnc3N)c3ccc(C)cc3)CCCCC2)cc1 | 13.7%
CCc1nnc(NC(=O)C2CCCN2C(=O)Nc2ccccc2OC)s1 (centres unmarked) | 12.9%
CCn1ncc(C2=NOC(C(=O)NCc3ccccc3)C2)c1C (centres unmarked) | -6.74%

SMILES | hERG current change (%, negative = inhibition) at 1uM
CCSc1ccc(C(=O)NCC(=O)O)cc1 | 14.6%
Cc1nn(C)c(C)c1NC(=O)c1cnn2c(C(F)F)cc(-c3ccccc3)nc12 | 24.7%
COCCSc1ccccc1C(=O)NCc1ccc2c(c1)OCO2 | 5.84%
O=C(CN1CCN(c2ccccc2)CC1)Nc1ccc2c(c1)OCCO2 | 4.63%
O=C(CCNC(=O)c1ccc(Br)o1)NC1CCCC1 | 7.52%
COc1ccc(/C=N/N=C2\CC3CCC2(C)C3(C)C)cc1O (centres unmarked) | 6.57%
[O-][n+]1c2ccccc2c2n1CCN=C2c1ccc(Cl)cc1 | 15.2%
COc1ccc(S(=O)(=O)N2CCOCC2)cc1NC(=O)c1cccc(Cl)c1 | 6.86%
COCCNC(=O)C(c1ccc(C)o1)N(Cc1ccc(OC)cc1)C(=O)Cn1nnc2ccccc21 (centres unmarked) | 7.85%
Cc1[nH]c2ccccc2c1/C=C/c1nc2ccccc2c(=O)n1CCO | -7.67%
CC(C)c1ccc(O)c(C(=O)c2cnn(-c3ccccc3)c2)c1 | 16.6%
O=C(COc1cc(Cl)c(Cl)cc1Cl)NCCc1ccccn1 | 1.32%
CCCN(C(=O)c1ccc(OCC(C)C)cc1)c1c(N)n(Cc2ccccc2)c(=O)[nH]c1=O | 4.57%
O=C(NNC(=O)c1ccc(F)cc1F)c1ccc2c(c1)OCO2 | 12.7%
COc1ccc(N(CC(=O)N/N=C/c2ccccc2OC)S(=O)(=O)c2ccccc2)cc1 | 11.8%
O=C(c1cc2ccccc2s1)N1CCOCC1 | 7.64%
COc1ccc(S(=O)(=O)NCCSCc2ccco2)cc1OC | 9.19%
COc1cc(C(=O)NCc2cc(C)nc3ccccc23)cc(OC)c1OC | 4.26%
CC1CCN(C(=O)c2cc3ccccc3cc2O)CC1 | 2.72%
CC(=O)c1ccc(S(=O)(=O)NC2CC(=O)N(c3cccc(F)c3)C2)cc1 (centres unmarked) | 6.01%
C=CCNC(=O)/C(=C\c1cccc([N+](=O)[O-])c1)NC(=O)c1ccccc1 | -8.25%
CCCCNC(=S)Nc1ccccc1Cc1ccccc1 | 11.7%
